{"source": "the supplement of paper PMC11417369", "note": "The list shows a part of the results.", "data": [{"system": "PfAP2-HC AP2 domain (GST-tagged)", "assay": "gcPBM binding intensity (ln(normalized median fluorescence intensity)); higher = stronger DNA binding", "procedure,_shortened": "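Binding intensity is the highest Masliner-normalised natural-log median intensity over replicate spots in either probe orientation. To obtain it, GST-tagged P. falciparum DNA-binding domains made in E. coli were incubated for 1 h on an Agilent 4 × 180k array of primer-extended double-stranded 36-bp intergenic genomic probes plus negative controls. Detection used Alexa488 anti-GST antibody with scanning at 488 nm.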", "values": [{"sequence": "ACCATATATTAAAAAGTGCATTAAATATATAAATAT [GTGCAC_site9443]", "gcPBM binding intensity (ln)": 9.6}, {"sequence": "AATTAAATGGATAAATGTACATATGTGAATATATTT [XGTACX_site84]", "gcPBM binding intensity (ln)": 9.83}, {"sequence": "TTACACAAGGATAAAAACATATGTATGATTATATAT [CACACA_negctrl_site654]", "gcPBM binding intensity (ln)": 9.75}, {"sequence": "AAAATTTGAAAAAGGGGTACTTAATAAAAGTTTCAT [XGTACX_site932]", "gcPBM binding intensity (ln)": 9.56}, {"sequence": "ATACTGTATAGTCGCACACAAAAATATAAAATATTT [CACACA_site6004]", "gcPBM binding intensity (ln)": 9.94}, {"sequence": "ATAATTAACAAATACACACACACACCCAGACAAAAA [CACACA_site4445]", "gcPBM binding intensity (ln)": 10.8}, {"sequence": "TTTTTAATCATAATATGTACATATAAAAATGGTTTG [XGTACX_site3996]", "gcPBM binding intensity (ln)": 9.49}, {"sequence": "AATATGTCTTAAAAAAGTACATAAATTTTAACTTCA [XGTACX_site6670]", "gcPBM binding intensity (ln)": 9.38}, {"sequence": "TTAAAAGAAAATAGGTGTACACATAATATATACATA [XGTACX_site7697]", "gcPBM binding intensity (ln)": 9.97}, {"sequence": "AAACAAATAAAAATATGTACACATTTTTTCATTATG [XGTACX_site5449]", "gcPBM binding intensity (ln)": 9.7}, {"sequence": "AAAATATTAAATATGTGTACATATAATAGTTCAATG [XGTACX_site5957]", "gcPBM binding intensity (ln)": 9.78}, {"sequence": "AACAATTAGAATAACGCATGCATTTATAATATAGAA [TGCATGCA_site595]", "gcPBM binding intensity (ln)": 9.8}, {"sequence": "TGTGTATATATAAATACACACCAAATGTTAATATAT [CACACA_site8501]", "gcPBM binding intensity (ln)": 9.76}, {"sequence": "TAATAAATCAAATGCACACACACAAAAAAAAAAAAA [CACACA_site161]", "gcPBM binding intensity (ln)": 10.3}, {"sequence": "TTTTTATTTTTTTATGCATGTGATGAAACGTGCCTA [TGCATGCA_site141]", "gcPBM binding intensity (ln)": 9.7}, {"sequence": "AAAAGGAGCAAATACAAAAAAATGAACAAAAAAAAA [CACACA_negctrl_site716]", "gcPBM binding intensity (ln)": 9.66}, {"sequence": "TTTTTCTTTGAATAAATACACACGAGAAATGAAAGT [CACACA_site1688]", "gcPBM binding intensity (ln)": 9.7}, {"sequence": "CATACCTATAGACACACACACACACGCACGCACAAA [CACACA_site6374]", "gcPBM binding intensity (ln)": 10.4}, {"sequence": "TTTTGTAATGCTTTTTTTTTTTTTTTTTTTTTTTTT [CACACA_negctrl_site932]", "gcPBM binding intensity (ln)": 9.2}, {"sequence": "ACATAGATCATAGGTTGTACGAAGGTATCCTTTATT [XGTACX_site694]", "gcPBM binding intensity (ln)": 9.65}, {"sequence": "TCATATATATATATATGTACATATTTATGTATGTAT [XGTACX_site6291]", "gcPBM binding intensity (ln)": 9.68}, {"sequence": "ACTTTTTGAATGTTTGCACACAAATCTCATAATTTT [CACACA_site358]", "gcPBM binding intensity (ln)": 10.1}, {"sequence": "TTTTTATAAATAATAAGGCGTATGAAAATAAAATAA [TGCATGCA_negctrl_site421]", "gcPBM binding intensity (ln)": 9.47}, {"sequence": "TCAAAATATCCAAAAGAATAAAGAAAAAAAAAAAGA [CACACA_negctrl_site1377]", "gcPBM binding intensity (ln)": 9.6}]}]}
